# Reference: article PMC9911399, “Two distinct binding modes provide the RNA-binding protein RbFox with extraordinary sequence specificity”
# Residue numbers refer to the chain shown, from its start. The list shows a part of the results.
# T1: RBFOX1 RRM RbFoxmut (Fox-RRM*) (Homo sapiens, UniProt Q9NWB1 109-208, R118D;E147R;N151S;E152T)
# T1 sequence: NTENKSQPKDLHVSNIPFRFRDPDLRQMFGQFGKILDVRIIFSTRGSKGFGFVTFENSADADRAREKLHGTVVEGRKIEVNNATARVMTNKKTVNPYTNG
# B1: AUCGGUG (DNA:RNA)
# RNA: GGGAGACCGGAAUUCAGAUUGUCCAUCGGUGUUAAAUCCCGUCGUAGCCACCA
# DNA 1: CAATCTGAATTCCGGTCTCCC
# DNA 2: TGGTGGCTACGACGGGATT
# B2: CCACGCG (DNA:RNA)
# RNA: B1 RNA with A25C, U26C, C27A, G28C, U30C
# DNA 1: CAATCTGAATTCCGGTCTCCC
# DNA 2: TGGTGGCTACGACGGGATT
# B3: GUAAACU (DNA:RNA)
# RNA: B1 RNA with A25G, C27A, G28A, G29A, U30C, G31U
# DNA 1: CAATCTGAATTCCGGTCTCCC
# DNA 2: TGGTGGCTACGACGGGATT
# B4: GCGUACG (DNA:RNA)
# RNA: B1 RNA with A25G, U26C, C27G, G28U, G29A, U30C
# DNA 1: CAATCTGAATTCCGGTCTCCC
# DNA 2: TGGTGGCTACGACGGGATT
# B5: AAGUUCA (DNA:RNA)
# RNA: B1 RNA with U26A, C27G, G28U, G29U, U30C, G31A
# DNA 1: CAATCTGAATTCCGGTCTCCC
# DNA 2: TGGTGGCTACGACGGGATT
# B6: CGCAUAC (DNA:RNA)
# RNA: B1 RNA with A25C, U26G, G28A, G29U, U30A, G31C
# DNA 1: CAATCTGAATTCCGGTCTCCC
# DNA 2: TGGTGGCTACGACGGGATT
# B7: CAAUCAU (DNA:RNA)
# RNA: GGGAGACCGGAAUUCAGAUUGUCCCAAUCAUUUAAAUCCCGUCGUAGCCACCA
# DNA 1: CAATCTGAATTCCGGTCTCCC
# DNA 2: TGGTGGCTACGACGGGATT
# B8: UUCCCUA (DNA:RNA)
# RNA: B1 RNA with A25U, G28C, G29C, G31A
# DNA 1: CAATCTGAATTCCGGTCTCCC
# DNA 2: TGGTGGCTACGACGGGATT
# B9: GAAGCGG (DNA:RNA)
# RNA: B7 RNA with C25G, U28G, A30G, U31G
# DNA 1: CAATCTGAATTCCGGTCTCCC
# DNA 2: TGGTGGCTACGACGGGATT
# Molecular target: T1, RBFOX1 RRM RbFoxmut (Fox-RRM*)
# Experiment: EMSA; HiTS-Eq, 1 nM pool, 10 min; buffer printed only for the single-RNA assays: 10 mM Tris pH 7.5, 150 mM NaCl, 3.4 mM EDTA, 0.001% NP-40, 30 C
# Settings: tags: His6 N-terminal (pET28a); label: 5' 32P
# Method in brief: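 A pool of RNA with 7 randomized nucleotides, 5′-radiolabelled and with DNA-annealed flanks, was equilibrated at 1 nM for 10 min in 50 µL with purified RbFox RRM, wild type or mutant, across increasing protein concentrations. Free RNA was separated by 8% native PAGE, excised, reverse-transcribed, barcoded by PCR and sequenced. Relative association constants were obtained from read-count changes of each RNA species versus the control reaction and normalised to the cognate motif.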
row,Binder,binding signal
1,B1,0.14 KA relative to UGCAUGU
2,B2,0.133 KA relative to UGCAUGU
3,B3,0.0901 KA relative to UGCAUGU
4,B4,0.23 KA relative to UGCAUGU
5,B5,0.115 KA relative to UGCAUGU
6,B6,0.135 KA relative to UGCAUGU
7,B7,0.0811 KA relative to UGCAUGU
8,B8,0.075 KA relative to UGCAUGU
9,B9,0.0502 KA relative to UGCAUGU
